These results are taken from a collection of fitness landscapes (doi:10.1126/science.1257360).

Some of the results follow.

B1: PhoQ; a variant is named by its letters at X, in order, P23837 (parent)
chain: MKKLLRLFFPLSLRVRFLLATAAVVLVLSLAYGMVALIGYSVSFDKTTFRLLRGESNLFYTLAKWENNKLHVELPENIDKQSPTMTLIYDENGQLLWAQRDVPWLMKMIQPDWLKSNGFHEIEADVNDTSLLLSGDHSIQQQLQEVREDDDDAEMTHSVAVNVYPATSRMPKLTIVVVDTIPVELKSSYMVWSWFIYVLSANLLLVIPLLWVAAWWSLRPIEALAKEVRELEEHNRELLNPATTRELTSLVRNLNRLLKSERERYDKYRTTLTDLTHSLKTPLXXLQXXLRSLRSEKMSVSDAEPVMLEQISRISQQIGYYLHRASMRGGTLLSRELHPVAPLLDNLTSALNKVYQRKGVNISLDISPEISFVGEQNDFVEVMGNVLDNACKYCLEFVEISARQTDEHLYIVVEDDGPGIPLSKREVIFDRGQRVDTLRPGQGVGLAVAREITEQYEGKIVAGESMLGGARMEVIFGRQHSAPKDE

The variants in this assay derive from B1. Put plainly: enrichment ratio after two sorts for PhoP signalling (ratio (wild type AVST 3.29)); higher = more functional. To be noted: with PhoP (E. coli).
CGHF: the enrichment ratio was at most 0.25.

IQVE: the enrichment ratio is at most 0.25.

Regarding WQFD, the enrichment ratio was at most 0.25.

In the case of MQYM, the enrichment ratio is at most 0.25.

Turning to PTVT, the enrichment ratio was at most 0.25.

Regarding KCCG, the enrichment ratio is at most 0.25.

Regarding QECE, the enrichment ratio was at most 0.25.

As to PPHS, the enrichment ratio is at most 0.25.

PVQT: the enrichment ratio was at most 0.25.

Regarding EFFV, the enrichment ratio is at most 0.25.

In the case of EGGS, the enrichment ratio came to 1.42.

For the variant LHHP, the enrichment ratio was at most 0.25.

Consider DPAE, for which the enrichment ratio is at most 0.25.

VFSY: the enrichment ratio was at most 0.25.

Consider PSHA, for which the enrichment ratio was at most 0.25.

With ATNG, the enrichment ratio is at most 0.25.

Turning to DCRF, the enrichment ratio is at most 0.25.

As to RNLH, the enrichment ratio was at most 0.25.

Turning to WFKM, the enrichment ratio was at most 0.25.

Take ECWF: the enrichment ratio is at most 0.25.

In the case of KIVR, the enrichment ratio was at most 0.25.

GFAG: the enrichment ratio is at most 0.25.

For the variant CQPP, the enrichment ratio was at most 0.25.

As to NPPD, the enrichment ratio is at most 0.25.

As for WWSV, the enrichment ratio was at most 0.25.

For the variant LMAC, the enrichment ratio is at most 0.25.

For the variant YSMW, the enrichment ratio is at most 0.25.

For TSKD, the enrichment ratio was at most 0.25.

As to RNNG, the enrichment ratio is at most 0.25.

For SLLC, the enrichment ratio was 7.49.

As to LKIQ, the enrichment ratio was at most 0.25.

IPKS: the enrichment ratio is at most 0.25.

As to ENVF, the enrichment ratio is at most 0.25.

In the case of LQES, the enrichment ratio is at most 0.25.

For FNCH, the enrichment ratio is at most 0.25.

For the variant MKNV, the enrichment ratio was at most 0.25.

Consider WARH, for which the enrichment ratio is at most 0.25.

As for GRPY, the enrichment ratio is at most 0.25.

As to PKQT, the enrichment ratio was at most 0.25.

Consider GCFI, for which the enrichment ratio was at most 0.25.

For the variant WCKA, the enrichment ratio is at most 0.25.

With QAHE, the enrichment ratio is at most 0.25.

Take WCPI: the enrichment ratio was at most 0.25.

Regarding QEYE, the enrichment ratio is 0.253.

On to MPGA, for which the enrichment ratio was at most 0.25.

Consider QSVH, for which the enrichment ratio was 2.88.

On to FWHR, for which the enrichment ratio was at most 0.25.

Consider ELSN, for which the enrichment ratio is at most 0.25.

DGKC: the enrichment ratio is at most 0.25.

Consider ISCK, for which the enrichment ratio is at most 0.25.

Turning to QMYH, the enrichment ratio is at most 0.25.
